# According to publication PMC12820563:
# Some of the results follow. The list includes weakly bound sequences.
# Molecular target: T1, MBP-FoxP3dN (UniProt Q99JB6)
# T1 sequence: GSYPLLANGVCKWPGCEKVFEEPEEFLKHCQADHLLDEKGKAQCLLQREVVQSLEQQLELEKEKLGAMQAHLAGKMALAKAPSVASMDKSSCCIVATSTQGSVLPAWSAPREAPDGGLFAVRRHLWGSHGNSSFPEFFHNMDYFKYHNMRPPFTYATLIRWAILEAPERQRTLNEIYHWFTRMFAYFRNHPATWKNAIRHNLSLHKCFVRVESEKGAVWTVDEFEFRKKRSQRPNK
# Test: PD-seq (MBP pull-down with sequencing)
# Settings: 20 mM Tris-HCl pH 7.5, 100 mM NaCl, 1.5 mM MgCl2, 0.4 uM protein, 0.1 uM dsDNA library, 30 min, room temperature, amylose pull-down; high values mean tight binding; double strand, one strand shown
row,Sequence,binding signal (RPM ratio (pull-down/input))
1,GATGATTGTTCTCCCAGCTGATGAATTCGTCATATCGAGTAAACAAATTTTCCTAATCTTTCTGTTCAAGCGCCATCTAC,1.02
2,GATGATTGTTCTCCCAGCTGATGAATTGCGATTGTCGAGTAAACAAATTTTCCTAATCTTTCTGTTCAAGCGCCATCTAC,2.85
3,GATGATTGTTCTCCCAGCTGATGAATTATCACCCTCGAGTAAACAAATTTTCCTAATCTTTCTGTTCAAGCGCCATCTAC,0.367
4,GATGATTGTTCTCCCAGCTGATGAATTCACCCGATCGAGTAAACAAATTTTCCTAATCTTTCTGTTCAAGCGCCATCTAC,0.2
5,GATGATTGTTCTCCCAGCTGATGAATTTCTCCTATCGAGTAAACAAATTTTCCTAATCTTTCTGTTCAAGCGCCATCTAC,0.264
6,GATGATTGTTCTCCCAGCTGATGAATTGATCTTATCGAGTAAACAAATTTTCCTAATCTTTCTGTTCAAGCGCCATCTAC,0.343
7,GATGATTGTTCTCCCAGCTGATGAATTGTTATAATCGAGTAAACAAATTTTCCTAATCTTTCTGTTCAAGCGCCATCTAC,1.03
8,GATGATTGTTCTCCCAGCTGATGAATTCCGTTGGTCGAGTAAACAAATTTTCCTAATCTTTCTGTTCAAGCGCCATCTAC,1.33
9,GATGATTGTTCTCCCAGCTGATGAATTTCCCCGTTCGAGTAAACAAATTTTCCTAATCTTTCTGTTCAAGCGCCATCTAC,0.218
10,GATGATTGTTCTCCCAGCTGATGAATTCCGTGCCTCGAGTAAACAAATTTTCCTAATCTTTCTGTTCAAGCGCCATCTAC,0.796
11,GATGATTGTTCTCCCAGCTGATGAATTACGAGCGTCGAGTAAACAAATTTTCCTAATCTTTCTGTTCAAGCGCCATCTAC,0.56
12,GATGATTGTTCTCCCAGCTGATGAATTCACTCGTTCGAGTAAACAAATTTTCCTAATCTTTCTGTTCAAGCGCCATCTAC,0.387
13,GATGATTGTTCTCCCAGCTGATGAATTGTCTCAGTCGAGTAAACAAATTTTCCTAATCTTTCTGTTCAAGCGCCATCTAC,0.318
14,GATGATTGTTCTCCCAGCTGATGAATTTACATGGTCGAGTAAACAAATTTTCCTAATCTTTCTGTTCAAGCGCCATCTAC,0.493
15,GATGATTGTTCTCCCAGCTGATGAATTACTTCGATCGAGTAAACAAATTTTCCTAATCTTTCTGTTCAAGCGCCATCTAC,0.247
16,GATGATTGTTCTCCCAGCTGATGAATTTACTTCGTCGAGTAAACAAATTTTCCTAATCTTTCTGTTCAAGCGCCATCTAC,0.559

row,Sequence,binding signal (RPM ratio (pull-down/input))
1,GATGATTGTTCTCCCAGCTGATGAATTGGGTTGCTCGAGTAAACAAATTTTCCTAATCTTTCTGTTCAAGCGCCATCTAC,0.931
2,GATGATTGTTCTCCCAGCTGATGAATTCAGAAGCTCGAGTAAACAAATTTTCCTAATCTTTCTGTTCAAGCGCCATCTAC,0.209
3,GATGATTGTTCTCCCAGCTGATGAATTCCTGTACTCGAGTAAACAAATTTTCCTAATCTTTCTGTTCAAGCGCCATCTAC,0.404
4,GATGATTGTTCTCCCAGCTGATGAATTATCACTATCGAGTAAACAAATTTTCCTAATCTTTCTGTTCAAGCGCCATCTAC,0.505
5,GATGATTGTTCTCCCAGCTGATGAATTTTTGCTCTCGAGTAAACAAATTTTCCTAATCTTTCTGTTCAAGCGCCATCTAC,0.422
6,GATGATTGTTCTCCCAGCTGATGAATTCCACGAGTCGAGTAAACAAATTTTCCTAATCTTTCTGTTCAAGCGCCATCTAC,0.257
7,GATGATTGTTCTCCCAGCTGATGAATTCGTAATTTCGAGTAAACAAATTTTCCTAATCTTTCTGTTCAAGCGCCATCTAC,0.623
8,GATGATTGTTCTCCCAGCTGATGAATTCTACTCCTCGAGTAAACAAATTTTCCTAATCTTTCTGTTCAAGCGCCATCTAC,0.336
9,GATGATTGTTCTCCCAGCTGATGAATTACGCTGCTCGAGTAAACAAATTTTCCTAATCTTTCTGTTCAAGCGCCATCTAC,0.655
10,GATGATTGTTCTCCCAGCTGATGAATTCAACCGTTCGAGTAAACAAATTTTCCTAATCTTTCTGTTCAAGCGCCATCTAC,0.334
11,GATGATTGTTCTCCCAGCTGATGAATTAGCTCGGTCGAGTAAACAAATTTTCCTAATCTTTCTGTTCAAGCGCCATCTAC,0.209
12,GATGATTGTTCTCCCAGCTGATGAATTTTAGAATTCGAGTAAACAAATTTTCCTAATCTTTCTGTTCAAGCGCCATCTAC,0.632
13,GATGATTGTTCTCCCAGCTGATGAATTCTCACCATCGAGTAAACAAATTTTCCTAATCTTTCTGTTCAAGCGCCATCTAC,0.338
14,GATGATTGTTCTCCCAGCTGATGAATTACCTAAATCGAGTAAACAAATTTTCCTAATCTTTCTGTTCAAGCGCCATCTAC,0.295
15,GATGATTGTTCTCCCAGCTGATGAATTTAGTGGATCGAGTAAACAAATTTTCCTAATCTTTCTGTTCAAGCGCCATCTAC,0.779
16,GATGATTGTTCTCCCAGCTGATGAATTAGCCTACTCGAGTAAACAAATTTTCCTAATCTTTCTGTTCAAGCGCCATCTAC,0.473
